{
  "source": "PubChem BioAssay AID743262",
  "about": "(National Center for Advancing Translational Sciences (NCATS), 2014)",
  "note": "In all, about 1,300 compounds went through this assay and about 25 (2%) were called active. Not shown: some 9% with an inconclusive outcome. Calls follow the shape of the dose curve; as a rule, active = well fitted activation curve with a large enough effect; inconclusive = small, poorly fitted or top-dose-only effect; inactive = flat fitted curve, though single readings scatter. The list shows a part of the results.",
  "data": [
    {"molecular_target": "Glucagon-like peptide 1 receptor (Homo sapiens) (UniProt P43220)", "sequence (P43220 whole entry, looked up)": "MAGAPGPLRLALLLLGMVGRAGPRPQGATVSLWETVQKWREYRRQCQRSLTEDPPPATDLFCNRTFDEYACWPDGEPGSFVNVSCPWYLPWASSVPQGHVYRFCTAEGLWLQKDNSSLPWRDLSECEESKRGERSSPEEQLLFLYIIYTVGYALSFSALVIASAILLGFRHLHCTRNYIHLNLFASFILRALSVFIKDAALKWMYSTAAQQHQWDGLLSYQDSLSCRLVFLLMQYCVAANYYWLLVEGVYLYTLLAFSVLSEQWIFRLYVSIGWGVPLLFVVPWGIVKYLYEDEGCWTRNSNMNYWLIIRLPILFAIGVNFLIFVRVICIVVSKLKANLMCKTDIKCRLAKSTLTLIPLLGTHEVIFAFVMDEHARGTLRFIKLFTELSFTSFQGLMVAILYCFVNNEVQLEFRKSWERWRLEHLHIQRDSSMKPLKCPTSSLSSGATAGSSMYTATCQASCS", "test": "qHTS of GLP-1 Receptor Agonists: Hit Validation; also: % of control where 0% means no effect", "settings": "HEK293 GLP-1R, cAMP-response luciferase, 4-6 h; series mostly up to 46.1 µM; activation: at the top concentration", "summary_of_the_method": "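HEK293 cells stably co-expressing a cAMP-responsive luciferase reporter and GLP-1R (hypersensitive receptor for weak agonists; wild-type line for confirmation) were plated 12 h at 37 °C, exposed to compound 4-6 h, then read by luminescence after 12 min detection reagent.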", "values": [
      {"smiles": "Cc1ncsc1CCSc1nc2ccccc2c(=O)n1C", "activation": "inactive: 9.28%"},
      {"smiles": "C/C(=N\\NC(=S)NCCc1ccccc1)c1ccc(Cl)cc1", "activation": "inactive: 7.83%"},
      {"smiles": "COC(=O)CSc1nnc(-c2ccc(OC)c(OC)c2)o1", "activation": "inactive: 3.18%"},
      {"smiles": "Cc1onc(-c2ccccc2Cl)c1-c1nc(-c2ccncc2)no1", "activation": "inactive: 13.2%"},
      {"smiles": "CCc1ccc(C(=O)COC(=O)c2cc([N+](=O)[O-])ccc2N2CCOCC2)cc1", "activation": "inactive: 14.8%"},
      {"smiles": "CSc1ccc(CN2CCC2(C)C(=O)NCc2ccc3c(c2)OCO3)cc1", "note": "(stereo not given)", "activation": "inactive: 2.83%"},
      {"smiles": "Cc1cc(C)n2ncc(C(=O)NCCc3ccccc3)c2n1", "activation": "inactive: 4.32%"},
      {"smiles": "CC1(C)CC(=O)C2=C(C1)N(CC1CCCO1)C(=O)NC2(C(F)(F)F)C(F)(F)F", "note": "(stereo not given)", "activation": "inactive: -1.07%"},
      {"smiles": "COc1ccc(NC(=O)C2(C)Cc3c(-c4ccc5c(c4)OCO5)ccnc3O2)cc1", "note": "(stereo not given)", "activation": "inactive: 13.3%"},
      {"smiles": "O=C(CSCc1ccccc1F)NCc1ccc(F)cc1", "activation": "inactive: -0.427%"},
      {"smiles": "O=C(COc1cccc([N+](=O)[O-])c1)N/N=C/c1ccco1", "activation": "inactive: -0.398%"},
      {"smiles": "CN(C)S(=O)(=O)N1CCN(S(=O)(=O)N(C)C)CC1", "activation": "inactive: -0.605%"},
      {"smiles": "Cc1c(NC(=O)C(C)OC(=O)c2c3c(nc4ccccc24)CCC3)c(=O)n(-c2ccccc2)n1C", "note": "(stereo not given)", "activation": "inactive: -0.292%"},
      {"smiles": "COc1ccc(/C=N/NC(=O)Cc2ccc(Cl)cc2)cc1OC", "activation": "inactive: 9.44%"},
      {"smiles": "Cc1nc(SCc2nc3ccccc3[nH]2)c2oc3cc(Br)ccc3c2n1", "activation": "inactive: 15.9%"},
      {"smiles": "CCCCCCNc1cc2n(c(=O)n1)CCc1cc(OC)c(OC)cc1-2", "activation": "inactive: 27.4%"},
      {"smiles": "COCCN(Cc1ccccc1)C(=O)c1cc(-c2ccc(OC)c(OC)c2)nc2ccccc12", "activation": "inactive: 23.1%"},
      {"smiles": "CCOc1ccc(NC(=O)CCSc2nc(-c3ccc4c(c3)OCO4)cc(C(F)(F)F)n2)cc1", "activation": "inactive: 0.299%"},
      {"smiles": "CCCCC(=O)Nc1ccc2oc(-c3cccnc3)nc2c1", "activation": "inactive: 2.85%"},
      {"smiles": "COc1ccc(-n2c(SCc3cn4c(C)cccc4n3)nc3ccccc3c2=O)cc1OC", "activation": "inactive: 22.2%"},
      {"smiles": "COc1ccccc1-c1nnc(SCC(=O)OC(C)C)o1", "activation": "inactive: 2.17%"},
      {"smiles": "CN(C)S(=O)(=O)c1ccc(Cl)c(NC(=O)CN2CCC(Cc3ccccc3)CC2)c1", "activation": "inactive: 3.45%"},
      {"smiles": "CC(=O)c1ccsc1-c1c(C)cc2oc(=O)cc(-c3ccccc3)c2c1C", "activation": "inactive: 14.2%"},
      {"smiles": "Cn1ncc2c(Nc3ccccc3Cl)nc(Nc3ccccc3Cl)nc21", "activation": "inactive: 25.8%"},
      {"smiles": "CC(=O)C(C)Oc1ccc2c3c(c(=O)oc2c1C)CCCC3", "note": "(stereo not given)", "activation": "inactive: 15.1%"},
      {"smiles": "CNS(=O)(=O)c1cc(NC(=O)c2cccc3cccnc23)ccc1C", "activation": "inactive: 12.5%"},
      {"smiles": "O=C1Nc2ccccc2C1Cc1ccccc1", "note": "(stereo not given)", "activation": "inactive: 0.138%"},
      {"smiles": "CS(=O)(=O)c1ccc(-c2cnc3c(NC=O)cc(-c4ccsc4)cn23)cc1", "activation": "inactive: 19.9%"},
      {"smiles": "O=C(c1ccc2c(c1)OCO2)N1CCCC(c2ccccc2)C1", "note": "(stereo not given)", "activation": "inactive: -0.314%"},
      {"smiles": "CCSC1=NCCN1S(=O)(=O)c1ccc(F)cc1", "activation": "inactive: 0.197%"}
    ]}
  ]
}
